This is one part of the list.

The target in the test is T1, OsWOX13 (Oryza sativa, UniProt Q5QMM3 1-267).
T1 sequence: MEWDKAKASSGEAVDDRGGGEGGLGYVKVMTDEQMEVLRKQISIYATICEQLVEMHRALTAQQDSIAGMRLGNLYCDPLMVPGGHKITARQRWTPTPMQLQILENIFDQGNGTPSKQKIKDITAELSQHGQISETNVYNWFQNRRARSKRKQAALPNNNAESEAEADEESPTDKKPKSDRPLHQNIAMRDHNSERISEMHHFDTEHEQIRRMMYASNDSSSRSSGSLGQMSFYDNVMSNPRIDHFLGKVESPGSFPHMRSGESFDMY
The test is described as follows: protein-binding microarray (RPBM); PBS, 2% BSA, 51.3 ng/ul salmon testes DNA, 50 uM zinc acetate, 200 nM TF, 25 C, 1 h; high values mean tight binding. To be noted: protein: recombinant; tags: N-terminal polyhistidine and DsRed monomer fusion (pET32a); label: CyDye5-dUTP incorporated in the synthesized complementary strand; 3' TTTTT single-stranded linker to array surface; dsDNA, one strand shown. Put shortly:
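The binding signal is fluorescence intensity per array feature (arbitrary units). Readings came from an Axon 4000B scanner after a washed, 2% BSA-blocked, double-stranded custom Agilent array had been incubated for 1 h at 25 °C with 200 nM protein and 50 µM zinc acetate. The protein was a Ni–NTA-purified transcription factor fused N-terminally to polyhistidine and DsRed, expressed in E. coli BL21-CodonPlus.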
“CTCCAAAACACTAATTAAGTTAACAAATAGAGCAACGAGCCGGAGTCACCTAGTGCAG”: the binding signal was 13600 fluorescence intensity (a.u.).
The figure for “TATGATTTATAAGCCAGTAAATTTAATGTCCTAAGTTTAGCGGAGTCACCTAGTGCAG” is 26000 fluorescence intensity (a.u.).
Consider “CAAATAGCAAAGATTAATTAGTATAGTATATTTGAGGTTGCGGAGTCACCTAGTGCAG”, for which the binding signal was 4840 fluorescence intensity (a.u.).
The figure for “GTTAGTCATGTGTTAATTTATATATCAATTTACGTGCGGGCGGAGTCACCTAGTGCAG” is 17600 fluorescence intensity (a.u.); for “ATAATTGTGAGGAGAACCACAGATTGTCCTGATTTTCACACGGAGTCACCTAGTGCAG” it is 3270 fluorescence intensity (a.u.).
The figure for “ACCAATTTAATTTCTGTAGCTTGATTTCCTCTTTGGCACACGGAGTCACCTAGTGCAG” is 20400 fluorescence intensity (a.u.).
As to “AGACTGTGATGGATAGAGACCACAATATTATCCATGCATACGGAGTCACCTAGTGCAG”, the binding signal was 7310 fluorescence intensity (a.u.).
Regarding “CACTCTTGCATTTCTTTGATTGCAAATTTCCAAGGCAGAACGGAGTCACCTAGTGCAG”, the binding signal is 5250 fluorescence intensity (a.u.).
As for “GATTGTACTTGATTTGCATTATGCAAAACATCAATAGCCCCGGAGTCACCTAGTGCAG”, the figure is 8340 fluorescence intensity (a.u.).
“GTTGATGATAATAAGAAAACAATTACCAGTACGCAGTACGCGGAGTCACCTAGTGCAG”: the binding signal was 5850 fluorescence intensity (a.u.).
The figure for “ATGAAGAAACTGTTGGTGATTTGACAAGTAGGCTTGGTTCCGGAGTCACCTAGTGCAG” is 6530 fluorescence intensity (a.u.); for “TGCTTAAATTTTAAACCTCTGAATTAACAGTATGTAATACCGGAGTCACCTAGTGCAG” it is 3510 fluorescence intensity (a.u.).
As for “CCCGCTTGAATGGATGGCAATCAACACAAGGAACAGACCGCGGAGTCACCTAGTGCAG”, the figure is 13700 fluorescence intensity (a.u.).
The figure for “TGTATGATTTGAATTGAGTGAAGAGTGACCGATCCGAGCTCGGAGTCACCTAGTGCAG” is 3700 fluorescence intensity (a.u.).
Take “TGCCAAATTAATTTGTAACATATATCTTGGCAAGAAAATGCGGAGTCACCTAGTGCAG”: the binding signal is 27800 fluorescence intensity (a.u.).
The figure for “AGTTTGTAATAATTAAAACCCAATCAATGATACGTCAATACGGAGTCACCTAGTGCAG” is 10300 fluorescence intensity (a.u.); for “CGATAACTGGAGATAGAGGAGCGACAAGGCTTCCGGTGCTCGGAGTCACCTAGTGCAG” it is 13000 fluorescence intensity (a.u.).
The figure for “TTACATCAATTAGCTCACACTTCTGCAACACAATATTAGCCGGAGTCACCTAGTGCAG” is 6360 fluorescence intensity (a.u.); for “CACTAATTAAGGGTGTCAAAGTGGACTTATTATTTTATCGCGGAGTCACCTAGTGCAG” it is 29500 fluorescence intensity (a.u.); for “ACTAATTTAGTATTATAAATATTACTATATTTGTTTATAACGGAGTCACCTAGTGCAG” it is 10200 fluorescence intensity (a.u.).
As to “GTTGGTGATAGACGATATAATTACGATCACCGAAAAGTGGCGGAGTCACCTAGTGCAG”, the binding signal is 31900 fluorescence intensity (a.u.).
Turning to “GAGATTTTGTTATAAAGAGTTAATTATAACAAATCCAATGCGGAGTCACCTAGTGCAG”, the binding signal is 4620 fluorescence intensity (a.u.).
As for “GATAAGATTATTTATGATATGATGATCACTTCAATATCTGCGGAGTCACCTAGTGCAG”, the figure is 9980 fluorescence intensity (a.u.); as for “ATATTCAATCTTAAATTTATAGTTGTGTGAGAAATTTTGTCGGAGTCACCTAGTGCAG”, 20800 fluorescence intensity (a.u.).
The figure for “ATTGATTTTCTAGACCTGCCACTGATTATACATGCTCAGTCGGAGTCACCTAGTGCAG” is 26900 fluorescence intensity (a.u.).
As for “GACTAATTTATGCATATGAATTCAGTTGCATTTCTGTGTTCGGAGTCACCTAGTGCAG”, the figure is 36300 fluorescence intensity (a.u.); as for “ATTTTAAATTTTAGTTATTTCTAAATTGTATTTCTATATGCGGAGTCACCTAGTGCAG”, 9830 fluorescence intensity (a.u.).
Consider “TCGAATAGATTTAGTTCCTTACTATCTATTTATAAGCGCCCGGAGTCACCTAGTGCAG”, for which the binding signal was 4140 fluorescence intensity (a.u.).
Take “CTGTAGATTCTTTTAATTTTCATCATTGGATAATTCAACCCGGAGTCACCTAGTGCAG”: the binding signal is 4320 fluorescence intensity (a.u.).
The figure for “CGATACTCCTAACACAAATTAGACAATCTACTCCGGTCAACGGAGTCACCTAGTGCAG” is 4520 fluorescence intensity (a.u.).
Take “ACTCTTTTATTAGTGTGATTACTAGAAAATAATTATACTTCGGAGTCACCTAGTGCAG”: the binding signal is 5230 fluorescence intensity (a.u.).
Turning to “CGGAAATGGAAATATATATATAGTAGTACTTCTGATCACACGGAGTCACCTAGTGCAG”, the binding signal was 3250 fluorescence intensity (a.u.).
The figure for “GTGGGATTGTGATTTTGTTTGTAACTAGTTATGTATCCAACGGAGTCACCTAGTGCAG” is 12600 fluorescence intensity (a.u.); for “ACTGGTAATTAATTTGTTGATACACTCAGTTTGGTAATGGCGGAGTCACCTAGTGCAG” it is 47500 fluorescence intensity (a.u.).
For “AACTAATTGCACAGTTTGCATGTAAATCACGACACGAATACGGAGTCACCTAGTGCAG”, the binding signal was 20200 fluorescence intensity (a.u.).
The figure for “AAGAGAACAAAATTTGATTACACAACGCACACTGTCAAAACGGAGTCACCTAGTGCAG” is 3180 fluorescence intensity (a.u.); for “AGAATGATTTAATGTATTGCCATATGAGTGAAATGGGAGCCGGAGTCACCTAGTGCAG” it is 29600 fluorescence intensity (a.u.).
“CTTAATTAGTCTCAAAAGATTCGTCTCGCGGTTTCCACGCCGGAGTCACCTAGTGCAG”: the binding signal is 20500 fluorescence intensity (a.u.).
Regarding “GTAGATGATTACAAACATAGGGGAATAACAATGGGAACGTCGGAGTCACCTAGTGCAG”, the binding signal is 15000 fluorescence intensity (a.u.).
As for “AATAATTGTATTAGTATATGTAGGAGCTTGACACCCATGGCGGAGTCACCTAGTGCAG”, the figure is 35700 fluorescence intensity (a.u.); as for “CTAGCAGGTGATTATAAATCCAATTTTAAATCCATTTCGACGGAGTCACCTAGTGCAG”, 8670 fluorescence intensity (a.u.).
The figure for “AAGATGAGTGATTAAGCATCAATTAAATCAAGACGACTAGCGGAGTCACCTAGTGCAG” is 31700 fluorescence intensity (a.u.).

For the origin of these results see PMC7819943, “Rice protein-binding microarrays: a tool to detect cis-acting elements near promoter regions in rice”.
